According to PubChem BioAssay AID1508642 (National Center for Advancing Translational Sciences (NCATS), 2021):
Out of some 43,000 compounds screened, about 200 (0.47%) were called active. Not shown: some 12% with an inconclusive outcome. The call rests on the fitted dose curve; in most records, active means well fitted cell-killing curve with a large enough effect; inconclusive means small, poorly fitted or top-dose-only effect, or effect the other way; inactive means flat fitted curve, though single readings scatter. Some of the results follow.

test: Cell viability qHTS assay in S16 Pmp22-F2sN cells; conditions: S16 Pmp22-F2sN Schwann cells (luciferase reporters placed in the Pmp22 gene) viability, CellTiter-Glo, 24 h; series mostly up to 57.5 µM; activity change, negative = cytotoxicity: at the top concentration; further: nearly all actives have a fitted effect of over 65% in size
Text: Assay Provider: Jim Inglese Ph.D. National Center for Advancing Translational Science, National Institutes of Health, Rockville, MD CMT is a heterogeneous group of neurological disorders that affect approximately 1 in 2,500 people. In particular, the most common form of CMT, CMT1A is genetically linked to the duplication of the PMP22 gene which leads to Schwann cell overexpression, thus manifesting itself as a typical case of dose-sensitive diseases. To identify small molecule compounds that can mediate the expression of PMP22 we developed a phenotypic assay screening strategy by utilizing genome editing techniques to construct Schwann cell lines containing novel reporter technology to monitor the transcriptional or translational regulation of PMP22. For high sensitivity we use a bioluminescent reporter system embedded in the 3' UTR of the PMP22 gene (S16(c9) Pmp22-F2sN) to identify compounds that inhibit gene expression. […] We can further discriminate the effect of all transcriptionally active molecules on PMP22 translation or stability with an assay that incorporates a short NLuc peptide (HiBiT) at the C-terminus of expressed PMP22 (S16(f8) PMP22-HiBiT) allowing alpha complementation and luminescence detection of membrane-associated PMP22 protein. These assays were screened against the NCATS Sytravon Library Collection. Miniaturization of these assays to 1536-well plate format for quantitative high throughput screening (qHTS) yielded rich data sets immediately from the qHTS assay (S16(c9) Pmp22-F2sN), when compared with data from a cell viability assay (Cell TiterGlo) to identify compounds that decreased the output signals through cellular toxicity to streamline the selection process of actives for subsequent characterization using the HiBiT assay (S16(f8) PMP22-HiBiT).
Cell viability assay in S16 Pmp22-F2sN cells PROTOCOL TABLE (format as described by Inglese J, Shamu CE and Guy RK. 2007) SEQUENCE No. (e.g., 1, 2, 3, etc.); […] (e.g., Cells, Incubation, Reagent, etc.); VALUE and DESCRIPTION. 1. Cells. Add 500-1,000 cells in 4 uL in growth media (DMEM High Glucose, No Phenol Red media + 10% heat-inactivated FBS + 1% Pen/Strep supplemented media) per well into Greiner 1536-well white/solid bottom high base, TC-treated plates. 2. Compounds. Library compounds and controls added at 23nL per well, transferred by Pin Tool. 3. Incubation. Incubate plates at 37C, 5% CO2, 95% RH for 24 h. 4. Reagent. Add 3uL CellTiter-Glo per well of Greiner 1536-well plates. 5. Incubation. Incubate plates at room temperature for 15 min., protect from light. 6. Detector. FLuc luminescence measured using CCD-based camera (Viewlux). NOTES (numbers refer to Sequence numbers above; values are from representative experiments) 6. Luminescence Read: Clear filter; Exposure = 1 sec, Gain = High, Speed = Slow, Binning = 2X REFERENCES: 1. Inglese J, Shamu CE and Guy RK, Reporting data from high throughput screening of small molecule libraries, Nature Chemical Biology, 2007, 3(8): 438-441. doi.org/10.1038/nchembio0807-438 2. Yasgar A, Shinn P, Jadhav A, Auld DS, Michael S, Zheng W, Austin CP, Inglese J and Simeonov A, Compound Management for Quantitative High-Throughput Screening. J. Assoc. Lab. Auto., 2008, 13: 79-89. doi: 10.1016/j.jala.2007.12.004
On the % scale 0 is the no-effect control and ±100 the full control effect.

SMILES	activity change, negative = cytotoxicity
O=S(=O)(NCc1nc2cccnc2n1Cc1ccccc1)c1ccc2c(c1)CCCC2	inactive: -5.41%
N#C/C(=C/c1ccc(Cl)cc1)c1nc(-c2ccc(Br)cc2)cs1	inactive: 2.75%
CCOC(=O)c1ccc(NC(=O)/C(C#N)=C/c2ccc(OC)cc2)cc1	inactive: 2.77%
CCc1ccc(-n2c(=O)c3c(C)c(C)sc3n(CC(=O)NCc3ccc(C)cc3)c2=O)cc1	inactive: 23.7%
CCCCc1nn2c(=O)cc(COC(=O)c3cccc(NC(=O)CCc4ccccc4)c3)nc2s1	inactive: -2.24%
Cc1ccc(CSc2oc(-c3ccco3)nc2S(=O)(=O)c2ccc(C)cc2)cc1	inactive: 3.91%
COc1cc(/C=C(\C#N)c2nc3ccccc3[nH]2)cc(Cl)c1OCc1ccccc1Cl	inactive: -2.13%
CCOc1ccc(NC(=O)CSc2nc(C)c(C(=O)Nc3ccccc3)c(-c3ccc(Cl)cc3)c2C#N)cc1	inactive: -1.97%
CCc1cccc(-n2c(C)nc3c(cnn3-c3ccc(C)c(C)c3)c2=O)c1	inactive: 1.84%
CCn1c2ccccc2c2cc(CN3CCN(Cc4ccccc4Cl)CC3)ccc21	inactive: -3.76%
COc1cccc(NC(=O)CSc2nc3cc(OC)c(OC)cc3c3nc(-c4ccccc4)nn23)c1	inactive: -1.5%
COc1cc(OC)c(NC2(c3ccccc3)C(=O)c3ccccc3C2=O)cc1Cl	inactive: 0.5%
O=C(Nc1ccc(OC(F)(F)F)cc1)c1nc2ccccc2nc1N1CCCCC1	inactive: -4.84%
CCc1ccc(NC(=O)Cn2nc3c4ccccc4n(Cc4ccccc4)cc-3c2=O)cc1	inactive: -4.51%
C[C@H](NC(=O)OC(C)(C)C)c1nnc(SCc2c(F)cccc2Cl)o1	inactive: 2.92%
CCOc1ccc(-c2cc(OC(=O)c3ccc(OC)cc3)c3c(C)oc(C)c3c(=O)c2)cc1	inactive: -0.148%
CCOc1ccc(C(=O)N(Cc2sccc2C)C2CCS(=O)(=O)C2)cc1 (stereo unspecified)	inactive: -3.53%
O=C1CC(c2cccc(O)c2)c2c(nc(SCc3ccccc3F)[nH]c2=O)N1 (stereo unspecified)	inactive: -10.2%
O=C(c1ccc(CSc2nc3ccncc3n2Cc2ccc(F)cc2)cc1)N1CCCCCC1	inactive: -19.9%
COCCCNC(=O)c1cc2c(=O)oc3ccc(C)cc3c2s1	inactive: -29.8%
CCc1nc2ccc(C(=O)N3CCN(c4cccc(C)c4C)CC3)cc2nc1CC	inactive: 6.76%
Cc1ccc(-c2nc3c4ccccc4[nH]c(=O)n3n2)cc1	inactive: 5.02%
O=C(Nc1c(C(=O)Nc2ccc(F)cc2)oc2ccccc12)c1cc2ccccc2o1	inactive: -3.87%
COc1ccc(Cn2c(=O)c3cccnc3n(CC(=O)Nc3ccc(C)c(F)c3)c2=O)cc1	inactive: 11%

SMILES	activity change, negative = cytotoxicity
COc1cc2c(cc1OC)C(COc1ccc3c(C)cc(=O)oc3c1)N(C(=O)C(C)C)CC2 (stereo unspecified)	inactive: 5.16%
CCOC(=O)c1nc(Nc2ccc(C(C)=O)cc2)c2ccccc2n1	inactive: 1.38%
Cc1cccc(-n2ccnc2SCC(=O)Nc2ccc(F)cc2F)c1C	inactive: 4.13%
Cc1cc(Oc2c(C(F)(F)F)oc3c(CN4CCC(C)CC4)c(O)ccc3c2=O)cc(C)c1Cl	inactive: 23.5%
Cc1ccc(C)c(CNC(=O)c2ccc3c(c2)nc2n3CCCCC2)c1	inactive: 0.605%
COc1ccc(S(=O)(=O)NCCCO)cc1-c1nnc2c3ccccc3c(C)nn12	inactive: -6.95%
CCOc1ccc(NC(=O)Cn2cc(C(=O)c3ccc(CC)cc3)c(=O)c3cc(OC)c(OC)cc32)cc1	inactive: 13%
COc1ccc(NS(=O)(=O)c2ccc3c(c2)CCN3C(=O)CCC(=O)O)cc1Cl	inactive: -4.46%
COc1ccc2cc3cc(C(=O)N4CCN(c5cccc(Cl)c5)CC4)sc3nc2c1	inactive: 0.609%
COc1ccc(-c2c3c(=O)n(C)c(=O)n(C)c3c3c(-c4cccc(C)c4)nc4ccccc4n23)cc1	inactive: -23.7%
Cc1cc(NC(=O)CCS(=O)(=O)c2cc(Br)cc3c2N(C(=O)C2CC2)CC3)ccc1Br	inactive: -8.88%
CCc1ccc(-n2c(=O)c3sc4ccccc4c3n(CC(=O)NC3CCCCC3)c2=O)cc1	inactive: -11%
Cc1ccc(NC(=O)Cn2nc(-c3ccncc3)ccc2=O)cc1Cl	inactive: 0.49%
CCOC(=O)c1ccc2c(c1)N(C(CC)C(=O)Nc1ccccc1OC)C(=O)c1ccccc1S2 (stereo unspecified)	inactive: 5.81%
CC(C)CCNC(=O)CSc1nc2ccccc2nc1Cc1ccccc1	inactive: 18.3%
CCc1ccc(NC(=O)C(C)n2nnc3sc(-c4ccccc4)cc3c2=O)cc1 (stereo unspecified)	inactive: -0.903%
CCOC(=O)c1cccc(NC(=O)C2CCCN(S(=O)(=O)c3ccc4c(c3)oc(=O)n4C)C2)c1 (stereo unspecified)	inactive: -15.3%
COc1ccc(NC(=O)/C(C#N)=C/c2cc(C)n(-c3ccc(F)cc3)c2C)cc1	inactive: 4.31%
C=CCC(CC=C)(CNC(=O)C(=O)Nc1cc(C)ccc1OC)c1ccc(OC)c(OC)c1	inactive: -13%
CCOc1ccc(C2=NC(c3ccc(OC)cc3)=Nc3ccc(Cl)cc3N2)cc1	inactive: -8.6%
COc1ccccc1CNC(=O)CN1C(=O)COc2ccc(S(=O)(=O)N3CCC(C)CC3)cc21	inactive: 3.88%
O=C(Cn1cc(S(=O)(=O)N2CCCC2)c(S(=O)(=O)N2CCCC2)c1)Nc1cccc(F)c1	inactive: 5.61%
Cc1ccc(CN(C(=O)COc2ccc(Cl)c(C)c2)C2CCS(=O)(=O)C2)o1 (stereo unspecified)	inactive: -3.64%
Cc1nc2nc(SCC(=O)O)nn2c(C)c1Cc1c(F)cccc1Cl	inactive: 8.22%

SMILES	activity change, negative = cytotoxicity
Cc1csc2nc(COC(=O)c3ccccc3NC(=O)COc3ccccc3F)cc(=O)n12	inactive: -10.7%
CC(C)C(=O)N(Cc1ccccc1)S(=O)(=O)c1ccc2c(c1)oc(=O)n2C	inactive: 0.254%
Cc1nc2nncn2c(NCc2ccc(Cl)cc2)c1C	inactive: -20.7%
Cc1ccc(-n2c(=O)c3c4c(sc3n(Cc3cccc(Cl)c3)c2=O)CCC4)cc1C	inactive: 0.921%
O=c1c2cn[nH]c2nc(SCc2cccc(Br)c2)n1-c1ccc(Cl)cc1	inactive: -18.7%
COc1ccccc1CNC(=O)NCc1noc2ccc(C)cc12	inactive: -2.92%
Cc1ccn2c(Nc3ccc4c(c3)OCO4)c(-c3ccc(N(C)C)cc3)nc2c1	inactive: -12.4%
CCOc1ccc(NC(=O)CC2C(=O)N(c3ccccc3)C(=O)N2C2CCCCC2)cc1 (stereo unspecified)	inactive: -25.9%
CCOC(=O)c1c(-c2ccccc2)csc1NC(=O)c1cc(-c2ccc(Br)cc2)on1	inactive: 2.87%
Cc1nc2ccc(S(=O)(=O)CCC(=O)Nc3ccc(C)c(C)c3)cc2s1	inactive: -13%
O=C(c1ccco1)n1nc(-c2ccccc2)nc1NCc1ccc(F)cc1	inactive: 15%
COc1cccc2sc(N(Cc3cccnc3)C(=O)Cc3ccccc3)nc12	inactive: -5.34%
CCN1CCN(c2cc3c(cc2F)c(=O)c(S(=O)(=O)c2ccc(OC)cc2)cn3CC)CC1	inactive: -3.42%
Cn1c(C(=O)NCc2ccccc2F)cc2oc3ccccc3c21	inactive: -20.3%
COc1cc(C(=O)Nc2ccc3[nH]c(=O)sc3c2)cc(OC)c1OC	inactive: 1.51%
CC1=C(C(=O)Nc2cccnc2)C(c2cccc(F)c2)n2nc(SCc3ccccc3)nc2N1 (stereo unspecified)	inactive: 10.1%
CC(C)C(=O)N1c2ncnn2C2(CCCCC2)[C@@H]2CCCC[C@@H]21	inactive: -20.1%
COc1ccc(C2CC(=O)N(Cc3ccc(F)cc3)c3ccccc3S2)cc1 (stereo unspecified)	inactive: -19.3%
Cc1ccc(S(=O)(=O)N2CCN(Cc3noc(CCC(=O)N4CCCCC4)n3)CC2)c(C)c1	inactive: -22.4%
CC(C)Cn1c(=O)c2sccc2n2c(CCCC(=O)NCCc3ccccc3)nnc12	inactive: 15%
COc1cccc(C(=O)NCC(=O)OCc2cc(=O)n3c(C)csc3n2)c1	inactive: -2.47%
CCN1CCN(c2oc(-c3ccc(COc4ccc(C)cc4)o3)nc2C#N)CC1	inactive: 5.51%
CCCCNc1ncnc2c1nnn2C	inactive: -22.6%
COc1ccc2oc(-c3cccc(NC(=O)c4ccc(C#N)cc4F)c3)nc2c1	inactive: 26.6%

SMILES	activity change, negative = cytotoxicity
CCCCNC(=O)c1ccc2c(c1)NC(=O)C(CS(=O)(=O)Cc1cccc(C)c1)N2 (stereo unspecified)	inactive: 6.45%
COc1cc(C2C(C(=O)OCC(C)C)=C(C)N=C3SCCC(=O)N32)ccc1OCc1ccccc1 (stereo unspecified)	inactive: -3.86%
Cc1cccc(NC(=O)Cn2nnc(C(=O)Nc3ccc(F)c(Cl)c3)c2N)c1	inactive: 10.1%
COc1cccc(NC(=O)CSc2nc(=O)n(Cc3ccco3)c3c2CCC3)c1	inactive: 9.94%
Cc1ccc(S(=O)(=O)c2cn(CC(=O)Nc3ccc4c(c3)OCO4)c3ccccc3c2=O)cc1	inactive: -2.12%
Cc1sc2ncn(CC(=O)N3CCN(c4ccc(F)cc4)CC3)c(=O)c2c1S(=O)(=O)N1CCCCC1	inactive: 6.47%
Cc1ccc(Nc2nc3c(S(=O)(=O)c4ccccc4)nnn3c3ccsc23)c(C)c1	inactive: -0.161%
Cc1cccc2sc(N(CCCN(C)C)C(=O)c3ccc(Cl)s3)nc12	inactive: -3.65%
CC1=C(C(=O)Nc2ccc(C)cc2C)C(C(C)C)n2nc(SCc3ccccc3Cl)nc2N1 (stereo unspecified)	inactive: 12.9%
Cc1ccc(Cn2cc(C(=O)c3ccc(F)cc3)c(=O)c3cc4c(cc32)OCCO4)cc1	inactive: 5.08%
CCc1ccccc1NC(=O)CSCc1cnn(-c2ccccc2)c1-n1cccc1	inactive: 0.101%
Cc1ccc2ncc3c(-c4ccc(F)cc4)nn(-c4cccc(F)c4)c3c2c1	inactive: 6.18%
Cc1ccc2c(c1)c1c(c(=O)n(-c3ccccc3C)c(=O)n1CC(=O)N1CCCC1)n2C	inactive: 14.1%
CCOc1ccccc1CNCCNC(=O)c1nonc1N	inactive: -3.84%
O=C(NCCc1ccccc1)C1(c2cccs2)CCOCC1	inactive: 3.18%
CCN(CC)CCNC(=O)c1nn(-c2ccc(OC)c(Cl)c2)c(=O)c2c1c1ccccc1n2C	inactive: 16.1%
O=C(CSc1nc2c(c(=O)[nH]1)CN(Cc1ccc(F)cc1)CC2)Nc1ccccc1Cl	inactive: 2.53%
CCOC(=O)C1CCN(S(=O)(=O)c2cc3c4c(c2)CC(=O)N4CCC3)CC1	inactive: -23.2%
CCCNC(=O)c1c(C)nn(-c2cccc(C)c2)c1-n1cccc1	inactive: 0.125%
COc1cccc(C(=O)N2c3nc(-c4ccco4)nn3C3(CCCCC3)[C@@H]3CCCC[C@@H]32)c1	inactive: -14.4%
CCCCn1cc2c(c1-c1ccccc1Br)c(=O)n(C)c(=O)n2C	inactive: 3.66%
Cc1nc(N2CCOCC2)c2c(C(=O)NCCc3ccccc3)c(C)oc2n1	inactive: -1.64%
Cc1ccc(C(=O)n2nc(-c3ccco3)nc2NCc2cccs2)cc1	inactive: -4.07%
O=C(CCC(=O)N1CC2CCCN2c2ccccc21)NCc1cccc(Cl)c1 (stereo unspecified)	inactive: -6.05%
